# In PubChem BioAssay AID485364 (National Center for Advancing Translational Sciences (NCATS), 2010):
# Among all 360,000 compounds or so, about 11,000 (3.1%) were called active. This list was built around the results that the source calls inconclusive (neither active nor inactive); the mix of calls is not that of the screen. Calls come from the whole dose curve; as a rule, active = well fitted inhibition curve with a large enough effect; inconclusive = small, poorly fitted or top-dose-only effect; inactive = no such curve, though single readings can be large or run the other way. No potency is given beside an inconclusive call; the fits are too rough.
# Target: Schistosoma mansoni thioredoxin glutathione reductase (TGR) (UniProt Q962Y6)
# Test: qHTS Assay for the Inhibitors of Schistosoma Mansoni Peroxiredoxins; note: nearly all actives have a fitted effect of over 60% in size
# Conditions: purified TGR, DTNB reduction, TNB absorbance 405 nm; activity change, negative = inhibition: at 114 µM (top of the series) unless noted
# How it was run: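 TGR 20 nM + NADPH 100 uM (dispensed conc.), cpd preinc 15 min RT; start with NADPH (500 uM addition) then DTNB (15 mM addition). Kinetic TNB absorbance, 405 nm filter. Four-parameter Hill fit across titration.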
# % is set by controls: 0 for no effect and ±100 for the full control effect; potency is the fitted concentration of half-maximal effect; tags give direction and shape of the fitted curve.
SMILES,"activity change, negative = inhibition",Potency
CC(C)(CO)NCc1cc(Br)ccc1OCc1ccccc1,inactive: -0.256%,–
O=C(CSc1ccc2nnc(CCNS(=O)(=O)c3ccccc3)n2n1)Nc1nc2ccccc2s1,–,"inconclusive [inhibitor, partial curve]"
Cc1ccc(Cl)cc1NC(=O)CCS(=O)(=O)c1ccc2c(c1)n(C)c(=O)c(=O)n2C,–,"inconclusive [inhibitor, partial curve]"
CCOc1cnn(-c2ccccc2)c(=O)c1Cl,–,"inconclusive [inhibitor, partial curve]"
O=C(COC(=O)c1ncc(Cl)c(Cl)c1Cl)Nc1ccc(Cl)cn1,–,active: 39.8 µM
CN(C)CCn1c(=O)n(Cc2ccccc2)c(=O)c2c3c(sc21)CCCCC3,inactive: 5.88%,–
CS(=O)(=O)c1nc(S(=O)(=O)c2ccc(Cl)cc2)c(N2CCCCCC2)s1,inactive: -12.8%,–
FC(F)(F)c1ccc(-c2noc(CN3CCCN(C4CCCCC4)CC3)n2)cc1,–,"inconclusive [inhibitor, partial curve]"
CCN(CC)S(=O)(=O)c1cccc(C(=O)N[C@H](C(=O)NCc2ccc(Cl)cc2)C(C)C)c1,inactive: -8.22%,–
Cc1csc(NC(=O)C2COc3ccccc3O2)n1 (configuration not stated),inactive: -2.31%,–
COc1ccc2oc(C(=O)N3CCN(C(=O)c4ccco4)CC3)c(C)c2c1,–,active: 50.1 µM
O=C(Nc1cccc(-c2ccc(N3CCOCC3)nn2)c1)c1ccc([N+](=O)[O-])cc1,inactive: 0.0999%,–
O=C1C=C(c2ccccc2)CC(c2cccs2)C1n1cnc([N+](=O)[O-])c1 (configuration not stated),inactive: -35.1%,–
CCOc1ccc(NC(=O)NCc2cccnc2)cc1,inactive: 15.5%,–
CCc1sc(/C=C(/C#N)C(N)=S)cc1[N+](=O)[O-],–,"inconclusive [inhibitor, full curve]"
COc1ccc(-c2cc(-c3ccc(Cl)cc3)c(C#N)c(SCC(=O)O)n2)cc1,–,"inconclusive [inhibitor, single point]"
COC(=O)c1ccc(-n2c(C)cc(C(=O)CCl)c2C)cc1,–,active: 4.47 µM
COC1(OC)N=C(NC(=O)Nc2ccccc2)C2(C#N)C(c3ccccc3)C12C#N (configuration not stated),–,"inconclusive [inhibitor, partial curve, poor fit]"
CC1(C)CC(=O)C2=C(C1)OC(c1ccncc1)C(C#N)=C2N (configuration not stated),–,"inconclusive [inhibitor, partial curve]"
O=C1NC(=O)/C(=C\c2ccc(N3CCOCC3)o2)N1,–,active: 8.91 µM
NS(=O)(=O)c1ccc(CCNC(=O)C2CCCN2S(=O)(=O)c2cccc3nsnc23)cc1 (configuration not stated),inactive: 4.6%,–
CCc1nnc(N/N=C/c2cc(C)c(C)cc2C)n1N,–,"inconclusive [inhibitor, partial curve, poor fit]"
CCn1cc(C(=O)O)c(=O)c2cc(F)c(N3CCN(C(=S)NC(=O)c4cccc(C)c4)CC3)cc21,inactive: 0.535%,–
Cc1ccc2c(=O)cc(C(=O)NCc3ccccc3)oc2c1C,inactive: -0.798%,–

SMILES,"activity change, negative = inhibition",Potency
CCN1CCN(CCNC(=O)CS(=O)(=O)Cc2nc(-c3ccc(C)cc3)oc2C)CC1,–,"inconclusive [inhibitor, partial curve, poor fit]"
O=S(=O)(NCCc1cn2ccsc2n1)c1ccc(Cl)cc1,–,active: 35.5 µM
N#C/C=C\Oc1ccc(Cl)cc1N,–,"inconclusive [inhibitor, full curve]"
C[N+]1(CCn2ccc3ccccc32)CCCCC1,–,"inconclusive [inhibitor, single point]"
Cc1cc2c(=O)n(CC(=O)N3CCN(c4ccc(F)cc4)CC3)cnc2s1,inactive: -3.3%,–
CCN(Cc1ccccc1)C(=O)c1ccc(CS(=O)c2ccccc2C)o1 (configuration not stated),–,active: 14.1 µM
S=C(NCc1ccncc1)Nc1ccc(Br)cc1,–,active: 28.2 µM
COC(=O)c1ccc(NC(=S)NC(=O)c2cccnc2)cc1,–,"inconclusive [inhibitor, partial curve, poor fit]"
Cc1cc(Cl)n2ncc(-c3ccccc3)c2n1,–,"inconclusive [inhibitor, partial curve]"
O=C(COC(=O)c1ccc([N+](=O)[O-])s1)NCc1ccccc1,–,"inconclusive [inhibitor, full curve]"
CCOC(=O)c1cc(C)sc1NC(=O)CN1CCN(C(=O)C2CCCO2)CC1 (configuration not stated),–,"inconclusive [inhibitor, partial curve]"
COc1cc(N=c2c([N+](=O)[O-])nn(-c3ccc4c(c3)OCCO4)n2O)cc(OC)c1,–,"inconclusive [inhibitor, partial curve]"
COc1cccc(C(=O)Nc2c3c(nn2-c2ccc(C)cc2C)CS(=O)(=O)C3)c1OC,–,"inconclusive [inhibitor, partial curve]"
S=c1[nH]nc(COc2ccc(Cl)cc2)n1-c1ccc(Cl)cc1,inactive: -0.0614%,–
Cc1cccc(N2CCN(c3ncnc4c3cnn4-c3ccc(Cl)cc3)CC2C)c1 (configuration not stated),inactive: 9.04%,–
N#Cc1ccsc1NC(=O)CN1CCN(S(=O)(=O)c2cc(Cl)ccc2Cl)CC1,–,"inconclusive [inhibitor, partial curve]"
COc1ccc(C2Nc3ccccc3C(=O)N2c2ccccc2)cc1COc1ccccn1 (configuration not stated),–,"inconclusive [inhibitor, full curve, poor fit]"
Cc1onc(C(=O)NCc2cccs2)c1[N+](=O)[O-],–,"inconclusive [inhibitor, partial curve]"
COc1ccc(/C=N\NC(=O)COc2ccccc2Cl)cc1Cn1nc(C)cc1C,inactive: 1.96%,–
CCN(CC(=O)NC(=O)NCc1ccco1)Cc1nc2ccccc2c(=O)[nH]1,–,"inconclusive [inhibitor, single point]"
CCn1nnnc1-c1ccc(OC)c(S(=O)(=O)NCc2ccccc2)c1,–,"inconclusive [inhibitor, single point]"
COc1ccc(OC)c(NC(=O)Cn2c(CCC(=O)O)ccc2-c2ccccc2)c1,–,"inconclusive [inhibitor, partial curve]"
COc1cccc(NC2c3ccccc3C(=O)N2Cc2ccco2)c1 (configuration not stated),–,active: 39.8 µM
